Results as given in the supplement of paper PMC12217912.
The list shows a part of the results. Sequences were assembled here from the parent chain. Inactive controls read about 0.05.

B1: TEV protease; numbered along this chain (parent)
chain: MGESLFKGPRDYNPISSSICHLTNESDGHTTSLYGIGFGPFIITNKHLFRRNNGTLVVQSLHGVFKVKDTTTLQQHLVDGRDMIIIRMPKDFPPFPQKLKFREPQREERICLVTTNFQTKSMSSMVSDTSCTFPSGDGIFWKHWIQTKDGQCGSPLVSTRDGFIVGIHSASNFTNTNNYFTSVPKNFMELLTNQEAQQWVSGWRLNADSVLWGGHKVFMVKPEEPFQPVKEATQL

Variants of: B1
Experiment: raw area under fraction-flipped curve 0-4 h after induction (AUC4h, not background-subtracted), DNA-recorder readout of cleavage of the substrate (dimensionless); higher = more cleavage of the substrate by the protease variant
Details: temperature: 34 °C; time window: 0-4 h after rhamnose induction
Procedure: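 In vivo DNA recorder in E. coli TOP10(DE3) ΔrhaA at 34 °C. Each TEVp single-site mutant (parent TEVp 0) is paired with a single-site variant of the 7-mer TEVs (canonical ENLYFQ|S). The substrate sits between flexible linkers in a Bxb1-sfGFP-TEVs-SsrA fusion, so cleavage stabilises Bxb1 and speeds flipping of a recombination array, read by NGS. The value is the raw area under the fraction-flipped curve over 0-4 h after rhamnose induction (AUC4h), with ≥20 reads per time point. It is not background-subtracted; inactive controls average about 0.047.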
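Also: Bxb1 expression induced with 0.2% (w/v) L-rhamnose at OD600 near 0.5, cultures sampled hourly, flipped fraction per protease–substrate barcode pair counted by paired-end Illumina sequencing.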

Variant	area with substrate ENLAFQS	area with substrate ENLCFQS	area with substrate ENLDFQS	area with substrate ENLEFQS	area with substrate ENLFFQS	area with substrate ENLGFQS	area with substrate ENLHFQS	area with substrate ENLKFQS	area with substrate ENLLFQS	area with substrate ENLRFQS	area with substrate ENLSFQS	area with substrate ENLVFQS	area with substrate ENLIFQS	area with substrate ENLMFQS	area with substrate ENLNFQS	area with substrate ENLPFQS	area with substrate ENLWFQS	area with substrate ENLTFQS	area with substrate ENLQFQS
Q146I	0.0784	0.0608	0.0589	0.0666	0.106	0.0512	0.0689	0.11	0.0651	0.0979	0.0482	0.0915	–	–	–	–	–	–	–
V183R	0.0586	0.0639	–	–	0.0487	–	–	0.0581	0.0481	0.0602	0.0499	0.0566	0.0533	0.0651	0.0505	0.0549	0.0575	–	–
T192F	0.0557	–	0.0644	0.0517	0.0864	0.0706	0.0706	0.0733	–	–	–	–	0.0065	–	0.0624	0.0766	–	0.0523	–
T192A	0.0688	–	0.0651	0.049	–	0.0762	0.0746	–	–	0.0646	0.0696	–	–	0.0651	–	–	0.039	–	0.0738
P155N	0.05	0.0611	0.0429	–	0.057	0.0622	0.0575	0.0496	0.0527	–	0.0502	0.0483	0.0646	0.0625	0.0526	0.0085	0.0564	0.0565	0.0491
G166I	0.0692	–	0.0566	–	0.0507	–	0.057	–	0.0532	0.0525	0.0325	0.0537	0.0498	0.0485	0.0666	0.038	0.0468	–	0.051
N193T	0.0497	0.0646	0.0643	–	0.0842	–	0.0573	0.0773	0.0562	0.0689	0.0715	–	0.0872	–	–	0.0625	–	–	–
V165G	0.0466	–	0.0549	0.0516	0.0581	–	0.0494	0.068	–	0.0567	0.0515	0.0536	0.0516	–	–	0.0512	0.0474	0.0702	0.0516
I167S	0.0743	0.0748	–	0.0554	0.0676	0.101	0.0625	0.0508	0.046	–	0.0641	0.0604	0.0542	–	0.0446	0.0455	0.0477	0.0598	0.0575
L191G	0.0517	0.0449	0.0643	–	0.0691	0.0781	0.0491	0.0661	0.0438	0.0512	0.0521	–	–	0.0577	0.0549	–	–	0.0573	0.0586
L191D	0.0793	–	–	0.0776	0.0655	–	–	0.058	–	0.0552	0.0589	0.0612	–	–	0.0446	0.0541	–	–	–
N186P	0.0597	0.0411	0.0626	0.0687	0.0691	–	–	0.0563	0.0637	–	0.0572	–	0.0673	–	0.0615	–	–	–	–
D161R	0.0422	0.065	0.0647	0.0396	0.0812	–	0.0637	0.0693	0.0361	0.0652	0.0502	–	–	–	0.0714	0.0587	–	–	0.0483
D161S	0.0646	0.0683	0.0676	0.0825	0.0733	0.068	0.0608	0.0783	–	0.0625	0.0538	0.0742	0.0716	–	–	–	–	–	0.0493
N175E	0.0657	–	0.0738	0.0636	0.0852	–	0.0455	0.0712	0.0469	0.0343	0.0496	0.043	0.0708	0.0647	0.055	0.0654	–	–	–
N175R	0.0699	–	–	0.0714	0.114	–	–	0.0645	–	–	–	0.149	0.0994	0.115	0.0713	0.0663	0.0813	–	–
G202H	0.0423	0.0616	–	0.0562	0.0694	–	–	0.08	–	0.0442	0.0704	–	–	–	0.0628	0.0684	0.0597	–	0.0471
P184M	0.0534	–	0.0631	0.0603	0.0482	–	0.0608	0.065	0.0627	0.0695	0.0706	0.0094	0.0565	0.0484	0.0565	0.0461	0.0364	0.0337	0.0645
A196E	0.0588	–	0.0643	0.0738	0.104	–	0.0924	0.072	0.0768	0.0746	0.0264	0.0563	0.0883	–	0.0561	0.0548	0.0715	–	0.0577
A196K	0.0664	0.0713	0.0646	–	0.0862	–	0.0721	0.0773	0.0674	0.0809	0.0628	0.0801	0.0684	0.0657	0.0682	0.0536	0.0972	0.0738	–
M188W	0.0918	0.0643	0.0576	0.0625	0.0696	0.0569	0.0576	0.0833	0.0412	–	0.0546	0.0837	–	–	0.0659	0.0542	–	–	0.0584
M188E	0.0493	–	0.0772	–	0.0813	–	0.0696	–	0.0675	–	0.0616	–	–	–	0.0692	–	–	–	0.0523
S158A	0.0647	–	–	0.0678	0.0837	–	0.0636	–	0.0745	0.058	0.0495	–	–	0.105	0.0639	0.0818	–	–	–
S158I	0.0411	–	0.0489	–	0.0254	–	0.0243	0.0564	–	–	0.0469	–	–	–	0.0561	–	0.0464	–	0.0562
S158D	0.0659	0.0647	0.0572	0.0592	0.0758	–	0.0787	–	0.0676	0.0711	0.0404	–	0.065	0.0528	0.06	–	0.0279	–	–
E189M	0.0681	0.0846	0.048	0.0582	0.0753	–	0.0461	0.0682	0.0697	0.0587	0.053	0.0778	0.0756	0.0702	0.0411	0.0798	0.0624	–	0.0767
Y179K	0.0635	–	0.0617	0.064	–	0.0597	–	0.0647	–	–	–	0.0574	–	–	0.0662	–	–	0.0518	0.0377
